# This is one part of the list.
# Legend:
# Test in all cases: glycan array binding signal (z-score within array); higher = stronger binding
# Conditions in all cases: glycan notation: IUPAC condensed, linker removed
# [1] = target: Neu5Ac(a2-3)Gal
# Procedure, shortened: (§1)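 Columns mapping to the same glycan were averaged after glycan names were converted to IUPAC-condensed notation. The data come from 3228 arrays in the Consortium for Functional Glycomics database, limited to those with an available protein sequence. Binding is reported as a within-array Z-score averaged across arrays of one protein sequence and across linkers.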
# [2] = target: Neu5Ac(a2-3)Gal(b1-3)GalNAc
# Procedure, shortened: as §1
# [3] = target: Neu5Ac(a2-3)Gal(b1-3)GalNAc(b1-3)Gal(a1-4)Gal(b1-4)Glc
# Procedure, shortened: as §1
# [4] = target: Neu5Ac(a2-3)Gal(b1-3)GalNAc(b1-4)[Neu5Ac(a2-3)]Gal(b1-4)Glc
# Procedure, shortened: as §1
# [5] = target: Neu5Ac(a2-3)Gal(b1-3)GalNAc(b1-4)[Neu5Ac(a2-8)Neu5Ac(a2-3)]Gal(b1-4)Glc
# Procedure, shortened: as §1
# [6] = target: Neu5Ac(a2-3)Gal(b1-3)GalNAc6S
# Procedure, shortened: as §1
# [7] = target: Neu5Ac(a2-3)Gal(b1-3)GlcNAc
# Procedure, shortened: as §1
# [8] = target: Neu5Ac(a2-3)Gal(b1-3)GlcNAc(b1-2)Man
# Procedure, shortened: as §1
# [9] = target: Neu5Ac(a2-3)Gal(b1-3)GlcNAc(b1-2)Man(a1-3)[GlcNAc(b1-4)][Neu5Ac(a2-3)Gal(b1-3)GlcNAc(b1-2)Man(a1-6)]Man(b1-4)GlcNAc(b1-4)GlcNAc
# Procedure, shortened: as §1
# [10] = target: Neu5Ac(a2-3)Gal(b1-3)GlcNAc(b1-2)Man(a1-3)[Neu5Ac(a2-3)Gal(b1-3)GlcNAc(b1-2)Man(a1-6)]Man(b1-4)GlcNAc(b1-4)GlcNAc
# Procedure, shortened: as §1
# [11] = target: Neu5Ac(a2-3)Gal(b1-3)GlcNAc(b1-3)Gal(b1-3)GlcNAc
# Procedure, shortened: as §1
# [12] = target: Neu5Ac(a2-3)Gal(b1-3)GlcNAc(b1-3)Gal(b1-4)GlcNAc
# Procedure, shortened: as §1
# [13] = target: Neu5Ac(a2-3)Gal(b1-3)GlcNAc(b1-3)GalNAc
# Procedure, shortened: as §1
# [14] = target: Neu5Ac(a2-3)Gal(b1-3)GlcNAc(b1-4)Gal(b1-4)Glc
# Procedure, shortened: as §1
# [15] = target: Neu5Ac(a2-3)Gal(b1-3)GlcNAc(b1-6)GalNAc
# Procedure, shortened: as §1
# [16] = target: Neu5Ac(a2-3)Gal(b1-3)GlcNAc6S
# Procedure, shortened: as §1
# [17] = target: Neu5Ac(a2-3)Gal(b1-3)[Fuc(a1-4)]GlcNAc
# Procedure, shortened: as §1
# [18] = target: Neu5Ac(a2-3)Gal(b1-3)[Fuc(a1-4)]GlcNAc(b1-3)Gal(b1-3)[Fuc(a1-4)]GlcNAc
# Procedure, shortened: as §1
# [19] = target: Neu5Ac(a2-3)Gal(b1-3)[Fuc(a1-4)]GlcNAc(b1-3)Gal(b1-4)[Fuc(a1-3)]GlcNAc
# Procedure, shortened: as §1
# [20] = target: Neu5Ac(a2-3)Gal(b1-3)[GlcNAc(b1-6)]GalNAc
# Procedure, shortened: as §1
# [21] = target: Neu5Ac(a2-3)Gal(b1-3)[Neu5Ac(a2-6)]GalNAc
# Procedure, shortened: as §1
# [22] = target: Neu5Ac(a2-3)Gal(b1-3)[Neu5Ac(a2-6)]GlcNAc(b1-3)[Fuc(a1-3)[Gal(b1-4)]GlcNAc(b1-6)]Gal(b1-4)Glc
# Procedure, shortened: as §1
# [23] = target: Neu5Ac(a2-3)Gal(b1-3)]Neu5Ac(a2-3)Gal(b1-4)]GlcNAc
# Procedure, shortened: as §1
# [24] = target: Neu5Ac(a2-3)Gal(b1-4)Glc
# Procedure, shortened: as §1
# [25] = target: Neu5Ac(a2-3)Gal(b1-4)GlcNAc
# Procedure, shortened: as §1
# [26] = target: Neu5Ac(a2-3)Gal(b1-4)GlcNAc(b1-2)Man
# Procedure, shortened: as §1
# [27] = target: Neu5Ac(a2-3)Gal(b1-4)GlcNAc(b1-2)Man(a1-3)[GlcNAc(b1-4)][Neu5Ac(a2-3)Gal(b1-4)GlcNAc(b1-2)Man(a1-6)]Man(b1-4)GlcNAc(b1-4)GlcNAc
# Procedure, shortened: as §1
# [28] = target: Neu5Ac(a2-3)Gal(b1-4)GlcNAc(b1-2)Man(a1-3)[Neu5Ac(a2-3)Gal(b1-4)GlcNAc(b1-2)Man(a1-6)]Man(b1-4)GlcNAc(b1-4)GlcNAc
# Procedure, shortened: as §1
# [29] = target: Neu5Ac(a2-3)Gal(b1-4)GlcNAc(b1-2)Man(a1-3)[Neu5Ac(a2-3)Gal(b1-4)GlcNAc(b1-2)Man(a1-6)]Man(b1-4)GlcNAc(b1-4)[Fuc(a1-6)]GlcNAc
# Procedure, shortened: as §1
# [30] = target: Neu5Ac(a2-3)Gal(b1-4)GlcNAc(b1-2)Man(a1-3)[Neu5Ac(a2-6)Gal(b1-4)GlcNAc(b1-2)Man(a1-6)]Man(b1-4)GlcNAc(b1-4)GlcNAc
# Procedure, shortened: as §1
# [31] = target: Neu5Ac(a2-3)Gal(b1-4)GlcNAc(b1-2)[Neu5Ac(a2-3)Gal(b1-4)GlcNAc(b1-4)]Man(a1-3)[GlcNAc(b1-4)][Neu5Ac(a2-3)Gal(b1-4)GlcNAc(b1-2)[Neu5Ac(a2-3)Gal(b1-4)GlcNAc(b1-6)]Man(a1-6)]Man(b1-4)GlcNAc(b1-4)GlcNAc
# Procedure, shortened: as §1
# [32] = target: Neu5Ac(a2-3)Gal(b1-4)GlcNAc(b1-2)[Neu5Ac(a2-3)Gal(b1-4)GlcNAc(b1-4)]Man(a1-3)[GlcNAc(b1-4)][Neu5Ac(a2-3)Gal(b1-4)GlcNAc(b1-4)Man(a1-6)]Man(b1-4)GlcNAc(b1-4)GlcNAc
# Procedure, shortened: as §1
# [33] = target: Neu5Ac(a2-3)Gal(b1-4)GlcNAc(b1-2)[Neu5Ac(a2-3)Gal(b1-4)GlcNAc(b1-6)]Man(a1-6)[Neu5Ac(a2-3)Gal(b1-4)GlcNAc(b1-2)Man(a1-3)]Man(b1-4)GlcNAc(b1-4)GlcNAc
# Procedure, shortened: as §1
# [34] = target: Neu5Ac(a2-3)Gal(b1-4)GlcNAc(b1-2)[Neu5Ac(a2-3)Gal(b1-4)GlcNAc(b1-6)]Man(a1-6)[Neu5Ac(a2-3)Gal(b1-4)GlcNAc(b1-2)Man(a1-3)][GlcNAc(b1-4)]Man(b1-4)GlcNAc(b1-4)GlcNAc
# Procedure, shortened: as §1
# [35] = target: Neu5Ac(a2-3)Gal(b1-4)GlcNAc(b1-3)Gal
# Procedure, shortened: as §1
# [36] = target: Neu5Ac(a2-3)Gal(b1-4)GlcNAc(b1-3)Gal(b1-3)GlcNAc
# Procedure, shortened: as §1
# [37] = target: Neu5Ac(a2-3)Gal(b1-4)GlcNAc(b1-3)Gal(b1-4)GlcNAc
# Procedure, shortened: as §1
# [38] = target: Neu5Ac(a2-3)Gal(b1-4)GlcNAc(b1-3)Gal(b1-4)GlcNAc(b1-2)Man(a1-3)[Neu5Ac(a2-3)Gal(b1-4)GlcNAc(b1-3)Gal(b1-4)GlcNAc(b1-2)Man(a1-6)]Man(b1-4)GlcNAc(b1-4)GlcNAc
# Procedure, shortened: as §1
# [39] = target: Neu5Ac(a2-3)Gal(b1-4)GlcNAc(b1-3)Gal(b1-4)GlcNAc(b1-3)Gal(b1-4)GlcNAc
# Procedure, shortened: as §1
# [40] = target: Neu5Ac(a2-3)Gal(b1-4)GlcNAc(b1-3)Gal(b1-4)GlcNAc(b1-3)Gal(b1-4)GlcNAc(b1-2)Man(a1-3)[Neu5Ac(a2-3)Gal(b1-4)GlcNAc(b1-3)Gal(b1-4)GlcNAc(b1-3)Gal(b1-4)GlcNAc(b1-2)Man(a1-6)]GalNAc
# Procedure, shortened: as §1
# [41] = target: Neu5Ac(a2-3)Gal(b1-4)GlcNAc(b1-3)Gal(b1-4)GlcNAc(b1-3)GalNAc
# Procedure, shortened: as §1
# [42] = target: Neu5Ac(a2-3)Gal(b1-4)GlcNAc(b1-3)Gal(b1-4)GlcNAc(b1-3)[Neu5Ac(a2-3)Gal(b1-4)GlcNAc(b1-3)Gal(b1-4)GlcNAc(b1-6)]GalNAc
# Procedure, shortened: as §1
# [43] = target: Neu5Ac(a2-3)Gal(b1-4)GlcNAc(b1-3)Gal(b1-4)GlcNAc(b1-6)[Gal(b1-3)]GalNAc
# Procedure, shortened: as §1
# [44] = target: Neu5Ac(a2-3)Gal(b1-4)GlcNAc(b1-3)Gal(b1-4)[Fuc(a1-3)]GlcNAc
# Procedure, shortened: as §1
# [45] = target: Neu5Ac(a2-3)Gal(b1-4)GlcNAc(b1-3)GalNAc
# Procedure, shortened: as §1
binder,measurement,setting,value
"CFEM-PPl (Pichia pastoris), F2QPV1 (protein) AVATPPACLLACAAEVVKESSDCDALNNIQCICENEGSAIHACLESTCPDGLSSTALQSFEDVCESVGTEANLDE",glycan array binding signal (z-score),[1],-0.313
same,glycan array binding signal (z-score),[2],-0.16
same,glycan array binding signal (z-score),[3],0.058
same,glycan array binding signal (z-score),[4],-0.267
same,glycan array binding signal (z-score),[5],-0.11
same,glycan array binding signal (z-score),[6],-0.222
same,glycan array binding signal (z-score),[7],-0.26
same,glycan array binding signal (z-score),[8],-0.229
same,glycan array binding signal (z-score),[9],-0.135
same,glycan array binding signal (z-score),[10],-0.355
same,glycan array binding signal (z-score),[11],-0.26
same,glycan array binding signal (z-score),[12],-0.283
same,glycan array binding signal (z-score),[13],-0.285
same,glycan array binding signal (z-score),[14],-0.344
same,glycan array binding signal (z-score),[15],-0.343
same,glycan array binding signal (z-score),[16],-0.331
same,glycan array binding signal (z-score),[17],-0.137
same,glycan array binding signal (z-score),[18],-0.196
same,glycan array binding signal (z-score),[19],-0.193
same,glycan array binding signal (z-score),[20],-0.379
same,glycan array binding signal (z-score),[21],-0.102
same,glycan array binding signal (z-score),[22],-0.169
same,glycan array binding signal (z-score),[23],-0.27
same,glycan array binding signal (z-score),[24],-0.259
same,glycan array binding signal (z-score),[25],-0.261
same,glycan array binding signal (z-score),[26],-0.169
same,glycan array binding signal (z-score),[27],-0.274
same,glycan array binding signal (z-score),[28],-0.287
same,glycan array binding signal (z-score),[29],-0.033
same,glycan array binding signal (z-score),[30],-0.337
same,glycan array binding signal (z-score),[31],-0.169
same,glycan array binding signal (z-score),[32],-0.305
same,glycan array binding signal (z-score),[33],-0.25
same,glycan array binding signal (z-score),[34],-0.222
same,glycan array binding signal (z-score),[35],-0.357
same,glycan array binding signal (z-score),[36],-0.337
same,glycan array binding signal (z-score),[37],-0.183
same,glycan array binding signal (z-score),[38],-0.218
same,glycan array binding signal (z-score),[39],-0.249
same,glycan array binding signal (z-score),[40],-0.203
same,glycan array binding signal (z-score),[41],-0.295
same,glycan array binding signal (z-score),[42],-0.247
same,glycan array binding signal (z-score),[43],0.534
same,glycan array binding signal (z-score),[44],-0.181
same,glycan array binding signal (z-score),[45],-0.298
